From article PMC3326058 come the findings set out here.

Assay [1] concerns the target p53 (expressed from pcDNA3-p53) (human) (UniProt P04637). The experiment in a line: co-IP; Flag-tagged JMJD protein and p53 coexpressed in HEK293T; lysis in 50 mM Tris-HCl pH 7.4, 150 mM NaCl, 0.5% NP-40; anti-p53 (DO-1) immunoprecipitation, anti-Flag (M2) Western blot. In general terms: Immunoblotting shows a protein as a band on a membrane.
For assay [2], the target named is p53 (expressed from pcDNA3-p53) (human), P04637. The description is as above. The note with it: remark: other sources report otherwise.
Assay [3] addresses GST-p53 full-length (human), P04637. Put plainly: pull-down; GST fusion proteins bound to glutathione agarose beads, incubated with HEK293T cell extract containing Flag-JMJD2D in 20 mM HEPES, 50 mM NaCl, 1 mM DTT, 0.01% Tween-20 for 3 h at 4°C; three washes; anti-Flag (M2) Western blot; only the target purified. The note with it: remark: other sources report otherwise.

These are yes or no findings as the source states them, for the method shown. Binding seen in cells or lysates may run through a third protein. Some entries that bind do so weakly or less than the wild type. Where a sequence is shown, tags or fusion partners need not be part of it.

B1: Flag-tagged HSPBAP1 (protein, UniProt Q96EW2 1-488)
chain: MAAGSEATTPVIVAAGAGGEEGEHVKPFKPEKAKEIIMSLQQPAIFCNMVFDWPARHWNAKYLSQVLHGKQIRFRMGMKSMSTVPQFETTCNYVEATLEEFLTWNCDQSSISGPFRDYDHSKFWAYADYKYFVSLFEDKTDLFQDVKWSDFGFPGRNGQESTLWIGSLGAHTPCHLDSYGCNLVFQVQGRKRWHLFPPEDTPFLYPTRIPYEESSVFSKINVVNPDLKRFPQFRKAQRHAVTLSPGQVLFVPRHWWHYVESIDPVTVSINSWIELEEDHLARVEEAITRMLVCALKTAENPQNTRAWLNPTEVEETSHAVNCCYLNAAVSAFFDRCRTSEVVEIQALRTDGEHMKKEELNVCNHMEVGQTGSQNLTTGTDKPEAASPFGPDLVPVAQRSEEPPSERGGIFGSDGKDFVDKDGEHFGKLHCAKRQQIMSNSENAIEEQIASNTTTTPQTFISTDDLLDCLVNPQVTRIVAQLLIQGRSL
For B1, the binding entry in assay [1] is given as “no binding”.

B2: Flag-tagged JMJD2D, Q6B0I6 1-523 (enzyme)
chain: METMKSKANCAQNPNCNIMIFHPTKEEFNDFDKYIAYMESQGAHRAGLAKIIPPKEWKARETYDNISEILIATPLQQVASGRAGVFTQYHKKKKAMTVGEYRHLANSKKYQTPPHQNFEDLERKYWKNRIYNSPIYGADISGSLFDENTKQWNLGHLGTIQDLLEKECGVVIEGVNTPYLYFGMWKTTFAWHTEDMDLYSINYLHLGEPKTWYVVPPEHGQRLERLARELFPGSSRGCGAFLRHKVALISPTVLKENGIPFNRITQEAGEFMVTFPYGYHAGFNHGFNCAEAINFATPRWIDYGKMASQCSCGEARVTFSMDAFVRILQPERYDLWKRGQDRAVVDHMEPRVPASQELSTQKEVQLPRRAALGLRQLPSHWARHSPWPMAARSGTRCHTLVCSSLPRRSAVSGTATQPRAAAVHSSKKPSSTPSSTPGPSAQIIHPSNGRRGRGRPPQKLRAQELTLQTPAKRPLLAGTTCTASGPEPEPLPEDGALMDKPVPLSPGLQHPVKASGCSWAPVP
In the case of B2, the binding result in assay [2] and in assay [3] was “binds” throughout.
